# Measured values reported in the supplement of paper PMC8728848.
# This is one part of the list.
# Tests used:
# Experiment in all cases: glycan array binding signal (z-score within array); higher = stronger binding
# Conditions in all cases: glycan notation: IUPAC condensed, linker removed
# [1] = target: Neu5Ac(a2-6)Gal(b1-4)GlcNAc(b1-2)Man(a1-3)[Man(a1-6)]Man(b1-4)GlcNAc(b1-4)GlcNAc
# How it was run: (§1)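 Glycan array data were curated from 3228 arrays in the Consortium for Functional Glycomics database and kept only where the protein sequence was available. Glycan names were converted to IUPAC-condensed notation, and columns mapping to the same glycan were averaged. The binding signal is a within-array Z-score, averaged across arrays of the same protein sequence at different concentrations or buffers and across linkers. Negative Z-scores can be read as non-binding.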
# [2] = target: Neu5Ac(a2-6)Gal(b1-4)GlcNAc(b1-2)Man(a1-3)[Neu5Ac(a2-6)Gal(b1-4)GlcNAc(b1-2)Man(a1-6)]Man(b1-4)GlcNAc(b1-4)GlcNAc
# How it was run: as §1
# [3] = target: Neu5Ac(a2-6)Gal(b1-4)GlcNAc(b1-2)Man(a1-6)Man(b1-4)GlcNAc(b1-4)GlcNAc
# How it was run: as §1
# [4] = target: Neu5Ac(a2-6)Gal(b1-4)GlcNAc(b1-2)Man(a1-6)[Gal(b1-4)GlcNAc(b1-2)Man(a1-3)]Man(b1-4)GlcNAc(b1-4)GlcNAc
# How it was run: as §1
# [5] = target: Neu5Ac(a2-6)Gal(b1-4)GlcNAc(b1-2)Man(a1-6)[GlcNAc(b1-2)Man(a1-3)]Man(b1-4)GlcNAc(b1-4)GlcNAc
# How it was run: as §1
# [6] = target: Neu5Ac(a2-6)Gal(b1-4)GlcNAc(b1-2)Man(a1-6)[Man(a1-3)]Man(b1-4)GlcNAc(b1-4)GlcNAc
# How it was run: as §1
# [7] = target: Neu5Ac(a2-6)Gal(b1-4)GlcNAc(b1-3)Gal(b1-3)GlcNAc
# How it was run: as §1
# [8] = target: Neu5Ac(a2-6)Gal(b1-4)GlcNAc(b1-3)Gal(b1-4)GlcNAc
# How it was run: as §1
# [9] = target: Neu5Ac(a2-6)Gal(b1-4)GlcNAc(b1-3)Gal(b1-4)GlcNAc(b1-3)Gal(b1-4)GlcNAc
# How it was run: as §1
# [10] = target: Neu5Ac(a2-6)Gal(b1-4)GlcNAc(b1-3)Gal(b1-4)[Fuc(a1-3)]GlcNAc(b1-3)Gal(b1-4)[Fuc(a1-3)]GlcNAc
# How it was run: as §1
# [11] = target: Neu5Ac(a2-6)Gal(b1-4)GlcNAc(b1-3)GalNAc
# How it was run: as §1
# [12] = target: Neu5Ac(a2-6)Gal(b1-4)GlcNAc6S
# How it was run: as §1
# [13] = target: Neu5Ac(a2-6)GalNAc
# How it was run: as §1
# [14] = target: Neu5Ac(a2-6)GalNAc(b1-4)GlcNAc
# How it was run: as §1
# [15] = target: Neu5Ac(a2-6)GlcNAc(b1-4)GlcNAc
# How it was run: as §1
# [16] = target: Neu5Ac(a2-6)GlcNAc(b1-4)GlcNAc(b1-4)GlcNAc
# How it was run: as §1
# [17] = target: Neu5Ac(a2-8)Neu5Ac
# How it was run: as §1
# [18] = target: Neu5Ac(a2-8)Neu5Ac(a2-3)Gal(b1-4)Glc
# How it was run: as §1
# [19] = target: Neu5Ac(a2-8)Neu5Ac(a2-3)[Gal(b1-3)GalNAc(b1-4)]Gal(b1-4)Glc
# How it was run: as §1
# [20] = target: Neu5Ac(a2-8)Neu5Ac(a2-3)[GalNAc(b1-4)]Gal(b1-4)Glc
# How it was run: as §1
# [21] = target: Neu5Ac(a2-8)Neu5Ac(a2-8)Neu5Ac
# How it was run: as §1
# [22] = target: Neu5Ac(a2-8)Neu5Ac(a2-8)Neu5Ac(a2-3)Gal(b1-4)Glc
# How it was run: as §1
# [23] = target: Neu5Ac(a2-8)Neu5Ac(a2-8)Neu5Ac(a2-3)[GalNAc(b1-4)]Gal(b1-4)Glc
# How it was run: as §1
# [24] = target: Neu5Ac(a2-8)Neu5Ac(a2-8)Neu5Ac(a2-8)Neu5Ac(a2-3)[GalNAc(b1-4)]Gal(b1-4)Glc
# How it was run: as §1
# [25] = target: Neu5Ac(b2-6)Gal(b1-4)GlcNAc
# How it was run: as §1
# [26] = target: Neu5Ac(b2-6)GalNAc
# How it was run: as §1
# [27] = target: Neu5Ac9Ac(a2-3)Gal(b1-3)GlcNAc
# How it was run: as §1
# [28] = target: Neu5Ac9Ac(a2-3)Gal(b1-4)GlcNAc
# How it was run: as §1
# [29] = target: Neu5Ac9Ac(a2-6)Gal(b1-4)GlcNAc
# How it was run: as §1
# [30] = target: Neu5Gc(a2-3)Gal(b1-3)GlcNAc
# How it was run: as §1
# [31] = target: Neu5Gc(a2-3)Gal(b1-3)[Fuc(a1-4)]GlcNAc
# How it was run: as §1
# [32] = target: Neu5Gc(a2-3)Gal(b1-4)Glc
# How it was run: as §1
# [33] = target: Neu5Gc(a2-3)Gal(b1-4)GlcNAc
# How it was run: as §1
# [34] = target: Neu5Gc(a2-3)Gal(b1-4)[Fuc(a1-3)]GlcNAc
# How it was run: as §1
# [35] = target: Neu5Gc(a2-6)Gal(b1-4)GlcNAc
# How it was run: as §1
# [36] = target: Neu5Gc(a2-6)GalNAc
# How it was run: as §1
# [37] = target: Neu5Gc(b2-6)Gal(b1-4)GlcNAc
# How it was run: as §1
binder,measurement,setting,value
"ASAL (Allium sativum), P83886 (protein) MGRTTSSPKAMMRIATVAAILTILASTCMARNVLTNGEGLYAGQSLDVEQYKFIMQDDCNLVLYEYSTPIWASNTGVTGKNGCRAVMQRDGNFVVYDVNGRPVWASNSVRGNGNYILVLQKDRNVVIYGSDIWSTGTYRRSVGGAVVMAMNGTVDGGSVIGPVVVNQNVTAAIRKVGTGAA",glycan array binding signal (z-score),[1],0.085
same,glycan array binding signal (z-score),[2],0.385
same,glycan array binding signal (z-score),[3],-0.283
same,glycan array binding signal (z-score),[4],4.59
same,glycan array binding signal (z-score),[5],5.01
same,glycan array binding signal (z-score),[6],-0.12
same,glycan array binding signal (z-score),[7],-0.147
same,glycan array binding signal (z-score),[8],-0.226
same,glycan array binding signal (z-score),[9],-0.266
same,glycan array binding signal (z-score),[10],-0.162
same,glycan array binding signal (z-score),[11],-0.236
same,glycan array binding signal (z-score),[12],-0.269
same,glycan array binding signal (z-score),[13],-0.28
same,glycan array binding signal (z-score),[14],-0.255
same,glycan array binding signal (z-score),[15],-0.217
same,glycan array binding signal (z-score),[16],-0.29
same,glycan array binding signal (z-score),[17],-0.25
same,glycan array binding signal (z-score),[18],-0.301
same,glycan array binding signal (z-score),[19],-0.185
same,glycan array binding signal (z-score),[20],-0.236
same,glycan array binding signal (z-score),[21],-0.259
same,glycan array binding signal (z-score),[22],-0.306
same,glycan array binding signal (z-score),[23],-0.26
same,glycan array binding signal (z-score),[24],-0.208
same,glycan array binding signal (z-score),[25],-0.298
same,glycan array binding signal (z-score),[26],-0.189
same,glycan array binding signal (z-score),[27],-0.237
same,glycan array binding signal (z-score),[28],-0.3
same,glycan array binding signal (z-score),[29],-0.244
same,glycan array binding signal (z-score),[30],-0.271
same,glycan array binding signal (z-score),[31],-0.28
same,glycan array binding signal (z-score),[32],-0.271
same,glycan array binding signal (z-score),[33],-0.197
same,glycan array binding signal (z-score),[34],-0.247
same,glycan array binding signal (z-score),[35],-0.255
same,glycan array binding signal (z-score),[36],-0.188
same,glycan array binding signal (z-score),[37],-0.28
